# Measured values reported in PubChem BioAssay AID624296 (National Center for Advancing Translational Sciences (NCATS), 2012).
# The whole screen tested about 350,000 compounds, of which about 9,900 (2.8%) were called active. Inconclusive means that the source gave no clear call. Such entries were picked first, then a sample of the others. Calls come from the whole dose curve; as a rule, active = well fitted activation curve with a large enough effect; inconclusive = small, poorly fitted or top-dose-only effect; inactive = no such curve, though single readings can be large or run the other way. Potencies of inconclusive entries are left out as doubtful fits.
# Assay: A quantitative high throughput screen for small molecules that induce DNA re-replication in MCF 10a normal breast cells. For activity, positive = re-replication: % of control where 0% means no effect. Note: nearly all actives have a fitted effect of over 50% in size.
# Details: MCF 10A DNA re-replication, Hoechst nuclear intensity, 48 h; activity, positive = re-replication: at 46.1 µM (top of the series)
# Potency is the fitted concentration of half-maximal effect; tags give direction and shape of the fitted curve.
SMILES,"activity, positive = re-replication",Potency
CC(C)CCNC(=O)CN(Cc1ccco1)C(=O)c1snc(C(N)=O)c1N,inactive: 6.05%,–
COc1ccc(N2CCN(c3oc(COc4ccc(Cl)cc4)nc3C#N)CC2)cc1,–,"inconclusive [activator, single point]"
COc1ccc(Cl)cc1NC(=O)CCN1C(=O)C2C3C=CC(C4CC34)C2C1=O (centres undefined),inactive: 0.672%,–
Cc1oc2ccc(O)cc2c1C(=O)c1ccc(Cl)cc1,–,"inconclusive [activator, partial curve]"
Cc1nc(NC(=O)CSc2nc3cccnc3n2C2CCCCC2)sc1C,–,"inconclusive [activator, single point]"
Cc1cc(C=O)c(C)n1-c1ccc(Oc2ccc([N+](=O)[O-])cn2)cc1,inactive: 6.15%,–
COc1cc([C@@H]2CC=C(C(=O)O)CN2S(=O)(=O)c2ccc(C)cc2)cc(OC)c1OC,inactive: -4.9%,–
CC1(C)CC(=O)C=C(N=CC2=C(O)CC(C)(C)CC2=O)C1,inactive: 7.82%,–
Cc1ccc(C)c(Nc2cc(C)nc(-c3ccccc3O)n2)c1,–,"inconclusive [activator, single point]"
NS(=O)(=O)c1ccc(N2N=C(c3ccccc3)CC2c2ccc(F)cc2)cc1 (centres undefined),–,active: 20.6 µM
Cc1ccc(OCC(=O)NN=C2c3ccccc3-c3ccccc32)cc1,–,"inconclusive [activator, single point]"
CN1CCN(CCCN(Cc2cccs2)C(=S)Nc2ccc(Cl)cc2)CC1,–,"inconclusive [activator, partial curve, poor fit]"
COc1ccc(NC(=O)CN(C)CC(=O)NCC(=O)Nc2ccc(F)cc2)cc1,–,"inconclusive [activator, partial curve, poor fit]"
CC(C)[C@H](NC(=O)[C@@H]1Cc2c([nH]c3ccccc23)C2c3ccccc3C(=O)N21)C(=O)N1CCC[C@@H]1C(=O)O (some centres undefined),–,"inconclusive [activator, partial curve, poor fit]"
Nc1c(Cl)cc2c(c1Oc1ccccc1)C(=O)c1ccccc1C2=O,–,active: 13 µM
COc1ccccc1NC(=O)Nc1ccc2c(c1)nnn2C,–,"inconclusive [activator, partial curve, poor fit]"
CCOc1ccc(Cl)cc1S(=O)(=O)n1cnc2ccccc21,–,active: 7.94 µM
CSc1ncccc1C(=O)Nc1ccc2c(c1)OCCO2,inactive: 0.406%,–
CS(=O)(=O)c1ccccc1C(=O)Nc1cccc(-c2nc3ccccc3o2)c1,–,"inconclusive [activator, single point]"
CN(C)CCC(Oc1ccccc1OCc1ccccc1)c1ccccc1 (centres undefined),–,"inconclusive [activator, partial curve, poor fit]"
CCCCC(=O)Nc1sc(C(=O)N(CC)CC)c(C)c1C(=O)OC,inactive: -0.12%,–
C=C(C)COc1ccc2c(C)c(CC(=O)N3C[C@H]4C[C@@H](C3)c3cccc(=O)n3C4)c(=O)oc2c1C,inactive: -2.39%,–
COc1cccc2sc(Nc3nnc(-c4ccccc4Cl)o3)nc12,inconclusive: 236% [activator],–

SMILES,"activity, positive = re-replication",Potency
O=C(CSCc1nc2ccccc2[nH]1)Nc1ccccc1,inactive: -4.19%,–
Oc1ccccc1N1CCN(C(=S)NCCc2ccccc2)CC1,–,"inconclusive [activator, single point]"
Clc1ccc(CSc2nnc(-c3ccc4c(c3)OCO4)o2)cc1,inactive: 4.31%,–
CC(/C=N/NC(=O)c1ccc2nc(C)[nH]c2c1)=C\c1ccccc1,–,"inconclusive [activator, single point]"
Cc1[nH]c2ccccc2c1/C=N/NC(=O)c1cccs1,inactive: 19.7%,–
Cc1ccc(C(=O)N2CCC(C(=O)Nc3cccc([N+](=O)[O-])c3)CC2)cc1,inactive: 6.49%,–
COCCNC(=O)c1c(N)n(CCC2=CCCCC2)c2nc3ccccc3nc12,–,active: 14.6 µM
O=C(COc1ccc(C(=O)c2ccccc2)cc1)NCC1CCCCC1,–,active: 18.4 µM
CCOC(=O)c1ccc(NC(=O)CCS(=O)(=O)Cc2ccccc2)cc1,–,"inconclusive [activator, single point]"
CCC(=Cc1ccccc1OC)c1ccncc1,–,"inconclusive [activator, partial curve, poor fit]"
COc1ccc(-c2cc(-c3ccccc3)nc(SCC(=O)Nc3nccs3)c2C#N)cc1,–,"inconclusive [activator, single point]"
CCn1c(CNC(=O)COc2ccc(C(C)C)cc2)nnc1SCC(=O)Nc1ccc(F)cc1,inactive: 15.1%,–
COc1ccc(N2CCN(C(=O)CNC(=O)Cc3ccc(Cl)cc3)CC2)cc1,–,"inconclusive [activator, single point]"
Cc1csc(N(C)C(=O)CSc2nnc(COc3cccc4ccccc34)o2)n1,inactive: -5.63%,–
Cc1ccc(-c2onc(C)c2C)cc1S(=O)(=O)N1CC(C)Oc2ccccc21 (centres undefined),–,"inconclusive [activator, partial curve, poor fit]"
O=C(CSc1nc2scc(-c3ccccc3)c2c(=O)[nH]1)Nc1ccccc1,–,"inconclusive [activator, single point]"
O=C(Nc1ccc(N2CCCCCC2)cc1)c1ccccc1Cl,–,active: 6.51 µM
Cc1cc(=O)c2ccccc2n1CC(=O)NCc1ccccc1,–,"inconclusive [activator, partial curve, poor fit]"
CCOC(=O)Nc1ccc2c(CNC(C)c3ccccc3OC)cc(=O)oc2c1 (centres undefined),–,active: 18.4 µM
O=C(NC1CCCC1)C(c1ccc(F)cc1)N(Cc1ccc(Cl)cc1)C(=O)CCl (centres undefined),inactive: 11.3%,–
Cc1cc2oc(C(=O)N(Cc3ccccc3)C3CCS(=O)(=O)C3)c(C)c2cc1C (centres undefined),–,"inconclusive [activator, partial curve]"
COc1cccc(CC2(CO)CCCN(CC3=Cc4cc(OC)ccc4OC3)C2)c1 (centres undefined),–,"inconclusive [activator, single point]"
Cc1cccc(N2C(S)=C(C#N)C(=O)NC2c2ccco2)c1 (centres undefined),–,"inconclusive [activator, single point]"

SMILES,"activity, positive = re-replication",Potency
COc1ccc(C2C(C#N)=C3NC(=O)c4c(sc5c4CCCCC5)N3C3=C2C(=O)CC(C)(C)C3)cc1 (centres undefined),–,"inconclusive [activator, partial curve, poor fit]"
Cc1ccc(NC(=O)C2CCCN(S(=O)(=O)c3cnc[nH]3)C2)c(Br)c1 (centres undefined),inactive: 4.49%,–
COc1ccc(S(=O)(=O)N(C)CC(=O)N2CCC(C)CC2)cc1Cl,–,"inconclusive [activator, single point]"
CN(Cc1ccccc1)C(=O)c1ccc(NC(=O)Cc2ccc(NC(=O)C3CCN(C(=O)c4ccccc4)CC3)cc2)cc1,–,"inconclusive [activator, partial curve, poor fit]"
O=C(O)c1c2c(nc3ccccc13)/C(=C/c1ccccc1[N+](=O)[O-])CCC2,–,"inconclusive [activator, single point]"
COC(CNc1ccc([N+](=O)[O-])c(NCC(OC)OC)c1C#N)OC,–,"inconclusive [activator, single point]"
C[C@@H](OC(=O)c1[nH]cnc1C(=O)NCc1ccc(CNC(=O)OC(C)(C)C)cc1)c1ccccc1,–,"inconclusive [activator, partial curve, poor fit]"
O=C(CSc1nc2ccccc2c(=O)n1Cc1ccco1)N1CCCCCC1,–,"inconclusive [activator, single point]"
CNc1c(N)c(=O)oc2ccccc12,–,"inconclusive [activator, partial curve, poor fit]"
NC(=O)c1sc2nnc(-c3ccccc3)c(-c3ccccc3)c2c1N,inactive: 12.2%,–
Cc1ccc(CSc2nc3c(c(N(C)C)n2)CCCC3)cc1,–,active: 12.6 µM
COc1cccc(NC(=O)CN(C)C(=O)c2cccc(NS(=O)(=O)c3ccccc3)c2)c1,inactive: 1.09%,–
CCN(CC)C(=O)[C@H]1CC(CC(=O)NCC23CC4CC(CC(C4)C2)C3)C(=O)N2CCc3c([nH]c4ccc(OC)cc34)[C@]12C (some centres undefined),–,"inconclusive [activator, single point]"
CCOc1ccc(NC(=O)c2c(OC)cccc2OC)cc1,–,active: 0.651 µM
Cc1ccc(C(C)C)c(OCC(=O)Nn2c(=O)[nH]c3ccccc3c2=O)c1,inactive: -0.499%,–
CN1/C(=C\C=C2/SC(=S)N(CC(=O)O)C2=O)C(C)(C)c2ccccc21,inactive: -8.19%,–
COCCN=c1scc(-c2cccs2)n1/N=C/c1ccc(O)c(O)c1O,–,"inconclusive [activator, partial curve, poor fit]"
CC(C)CN(C(=O)COC(=O)COc1ccc2ccccc2c1)c1c(N)n(Cc2ccccc2)c(=O)[nH]c1=O,–,"inconclusive [activator, single point]"
COc1ccc(/C=C/c2nc3ccccc3n2Cc2ccc(OC)c(OC)c2)cc1,–,"inconclusive [activator, single point]"
Cc1ccccc1N=C1NC(=O)/C(=C/c2cccn2C)S1,–,"inconclusive [activator, single point]"
CSc1ccccc1OCc1cc(C(=O)NCCn2nc(C)cc2C)no1,inactive: 3.51%,–
COc1ccc(OC)c(C2C(C(N)=O)=C(C)Nc3nc(-c4cccc(Cl)c4)nn32)c1 (centres undefined),–,"inconclusive [activator, partial curve, poor fit]"
Cc1cc(C)cc(N(C(=O)c2snc(C(N)=O)c2N)C(C(=O)NCC2CCCO2)c2cccs2)c1 (centres undefined),–,"inconclusive [activator, single point]"
